Results taken from PubChem BioAssay AID588342 (National Center for Advancing Translational Sciences (NCATS), 2011).
Out of some 360,000 compounds screened, about 25,000 (6.9%) were called active. Inconclusive means that the source gave no clear call. Such entries were picked first, then a sample of the others. Calls come from the whole dose curve; as a rule, active = well fitted inhibition curve with a large enough effect; inconclusive = small, poorly fitted or top-dose-only effect; inactive = flat fitted curve, though single readings scatter. Potencies of inconclusive entries are doubtful fits and often do not repeat.

What follows are molecules tested against Luciferin 4-monooxygenase (Photinus pyralis) (UniProt P08659) (assay: qHTS profiling assay for firefly luciferase inhibitor/activator using purifed enzyme and Km concentrations of substrates (counterscreen for miR-21 project)). Conditions: purified FLuc, luminescence inhibition; series mostly up to 57.5 µM.
Chain of UniProt P08659 (P08659 whole entry, looked up): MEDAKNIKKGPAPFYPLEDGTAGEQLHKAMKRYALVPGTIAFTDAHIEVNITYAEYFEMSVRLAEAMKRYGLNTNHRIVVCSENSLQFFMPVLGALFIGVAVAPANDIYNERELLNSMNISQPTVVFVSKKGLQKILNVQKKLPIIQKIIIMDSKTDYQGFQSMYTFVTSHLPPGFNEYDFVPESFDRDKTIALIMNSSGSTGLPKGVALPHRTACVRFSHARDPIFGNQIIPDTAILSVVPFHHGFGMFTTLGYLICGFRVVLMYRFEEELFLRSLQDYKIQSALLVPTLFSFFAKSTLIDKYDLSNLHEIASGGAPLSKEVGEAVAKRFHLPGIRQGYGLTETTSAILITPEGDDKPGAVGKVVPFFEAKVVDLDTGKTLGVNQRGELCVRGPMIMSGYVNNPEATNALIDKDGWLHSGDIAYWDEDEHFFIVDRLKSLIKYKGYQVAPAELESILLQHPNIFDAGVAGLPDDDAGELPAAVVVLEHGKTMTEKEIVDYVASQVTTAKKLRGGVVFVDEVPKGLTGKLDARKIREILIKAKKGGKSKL
In short: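 Biochemical qHTS of compounds, final roughly 60 µM downward over six points, against 10 nM purified firefly luciferase using Km concentrations of substrates (10 uM D-luciferin, 10 uM ATP) in Tris acetate pH 7.5 buffer; luminescence output.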
Note: nearly all actives have a fitted effect of over 55% in size.
Potency is the fitted concentration of half-maximal effect; tags give direction and shape of the fitted curve.

| Compound | Potency |
| --- | --- |
| CCN1CCN(C(=S)c2ccc(OCC(=O)NCc3ccccc3)cc2)CC1 | inactive |
| C=C(C)COc1ccc2c(CC)cc(=O)oc2c1C | inconclusive: 19 µM [inhibitor, single point] |
| Cc1ccc(OCC(=O)Nc2ccccc2OCc2cc(=O)n3ccccc3n2)cc1C | inconclusive: 1.07 µM [inhibitor, full curve, poor fit] |
| C/C(=N\NC(=O)c1ccc([N+](=O)[O-])cc1Cl)c1ccccc1 | inconclusive: 26.9 µM [inhibitor, partial curve] |
| C/C(N)=C(/C#N)C(=O)COC(=O)c1cc(-c2ccc(C)cc2)nc2ccccc12 | active: 9.53 µM |
| O=C1OC(c2ccccc2)=C/C1=C/N1CCOCC1 | inconclusive: 26.9 µM [inhibitor, single point] |
| COc1ccc(NC(=O)c2ccc([N+](=O)[O-])o2)cc1 | inconclusive: 26.9 µM [inhibitor, partial curve, poor fit] |
| Cc1ccc(-c2nnc(Nc3ccc(C(=O)N(C)C)cc3)c3ccccc23)cc1S(=O)(=O)N(C)C | inconclusive: 23.9 µM [inhibitor, single point] |
| O=C(OCCN1CCCCC1)c1ccccc1Br | inconclusive: 21.3 µM [inhibitor, single point] |
| CN(C(=O)CSc1nc(-c2ccc(F)cc2)cs1)C1CCS(=O)(=O)C1 (configuration not stated) | inconclusive: 37.9 µM [inhibitor, partial curve, poor fit] |
| Cc1ccc(-c2cc(C(=O)N/N=C/C=C/c3ccco3)c3ccccc3n2)cc1C | active: 1.07 µM |
| COC(=O)c1coc(-c2ccc(C)cc2)c1C(=O)OC | inconclusive: 21.3 µM [inhibitor, single point] |
| Cc1cccc(NC(=O)Cn2nnc3ccccc32)c1 | inconclusive: 10.7 µM [inhibitor, partial curve] |
| Cc1ccc2oc3c(c(=O)c2c1)C(c1cccc(Br)c1)N(Cc1ccco1)C3=O (configuration not stated) | inactive |
| CN(C)CC(=O)Nc1nc(-c2ccccc2)cs1 | inconclusive: 37.9 µM [inhibitor, single point] |
| O=C(Nc1ccc(Br)cn1)c1ccc([N+](=O)[O-])cc1Cl | active: 13.5 µM |
| CCOc1ccc(C(=O)Nc2cc(C)c3c(=O)oc4ccccc4c3n2)cc1 | inconclusive: 2.69 µM [inhibitor, partial curve] |
| N#Cc1ccccc1OCC(=O)Nc1nnc(C2CC2)s1 | inconclusive: 21.3 µM [inhibitor, single point] |
| O=C(N/N=C/c1cccc(Oc2ccccc2)c1)c1ccncc1 | inconclusive: 37.9 µM [inhibitor, single point] |
| CCCN1Cc2cccc(C(=O)Nc3cccc(C(=O)OCC)c3)c2C1=O | inconclusive: 10.7 µM [inhibitor, partial curve] |
| Cc1ccc(C(=O)N/C(=C/c2ccco2)C(=O)Nc2cccc(C(=O)O)c2)cc1 | inconclusive: 21.3 µM [inhibitor, partial curve] |
| COc1ccc(S(=O)(=O)c2c(O)c3ccc(C(=O)Nc4ccc(F)cc4)cc3[nH]c2=O)cc1 | inconclusive: 30.1 µM [inhibitor, partial curve, poor fit] |
| CCC1Oc2ccc(Cl)cc2N(CC(=O)NCCc2ccc(Cl)cc2)C1=O (configuration not stated) | inactive |
| O=C(Nc1ncc2c(n1)-c1ccccc1CC2)c1cccs1 | active: 19 µM |

| Compound | Potency |
| --- | --- |
| CCN(CC(=O)NC(C)(C)C)C(=O)CCl | inactive |
| CCc1cccc(C)c1NC(=O)Cn1nc(C)c2nn(-c3ccc(Cl)cc3)c(C)c2c1=O | inactive |
| O=C(c1ccco1)N1CCN(C(=O)c2cc(-c3ccccc3F)no2)CC1 | active: 13.5 µM |
| COc1ccc(-c2nc(C#N)c(N3CCCCCC3)o2)cc1OC | inconclusive: 26.9 µM [inhibitor, single point] |
| Cc1ccc(N(CC(=O)NCC2CCCO2)C(=O)CCC(=O)Nc2ccccn2)cc1 (configuration not stated) | inactive |
| COc1ccccc1C(=O)Nc1ccc2oc(-c3cccc4c(Br)cccc34)nc2c1 | inconclusive: 12 µM [inhibitor, partial curve, poor fit] |
| CCOC(=O)c1sc(-c2cccs2)nc1C | active: 16.9 µM |
| CC1=C(c2ccc(C(C)C)cc2)S(=O)(=O)N=C1N1CCC(C(=O)NCCc2ccco2)CC1 | inactive |
| CC(OC(=O)c1ccc(Cl)nc1)C(=O)Nc1ccc2c(c1)OCO2 (configuration not stated) | inconclusive: 16.9 µM [inhibitor, partial curve] |
| S=C(Nc1ccccc1Cl)N1CCN(Cc2ccccc2)CC1 | inactive |
| CCOc1ccc(CNC(=O)c2ccc3c(c2)nc2n3CCOC2)cc1OC | inactive |
| COc1ccccc1CCC(=O)N(C)C1CCCN(Cc2ccccc2F)C1 (configuration not stated) | inactive |
| Cc1ccc(C(=O)Nc2c(C)nc3ccccn3c2=O)cc1C | inconclusive: 26.9 µM [inhibitor, partial curve, poor fit] |
| CCCOc1cccc(C(=O)Nc2cc(-c3ccccc3)no2)c1 | active: 6.01 µM |
| CC(C)CC(=O)N(c1nnc(-c2cccnc2)s1)C1CCCC1 | inactive |
| Cc1cc(-c2sccc2Br)nc(-n2cccc2)n1 | inconclusive: 23.9 µM [inhibitor, single point] |
| CC(C)CN(CC(C)C)c1ccc(/C=N/n2cnnc2)cc1[N+](=O)[O-] | inactive |
| Cc1c(NC(=O)c2cccc(NC(=O)COc3ccc(C#N)cc3)c2)c(=O)n(-c2ccccc2)n1C | inconclusive: 23.9 µM [inhibitor, partial curve, poor fit] |
| O=c1cc(N2CCCCC2)c(-c2ccccc2)nn1Cc1cccc(F)c1 | inconclusive: 37.9 µM [inhibitor, partial curve, poor fit] |
| CC(=O)c1cccc(NC(=O)CSc2nc3ccccc3nc2Cc2ccc(F)cc2)c1 | inactive |
| COc1ccc(C(=O)Nc2cc(C(=O)c3ccccc3)c(C)oc2=O)cc1 | inconclusive: 30.1 µM [inhibitor, single point] |
| CCS(=O)(=O)N1CC(=O)N(c2ccc(Cl)cc2)C(C)(C(=O)NC2CCCCC2)C1 (configuration not stated) | inactive |
| O=C(O)c1ccc(-c2nc(-c3ccccc3)c(-c3ccccc3)[nH]2)cc1 | inconclusive: 21.3 µM [inhibitor, partial curve, poor fit] |
| Cc1ccc(C(=O)/C=C/NNC(=O)c2ccccc2O)cc1 | active: 26.9 µM |

| Compound | Potency |
| --- | --- |
| CCc1ccc(S(=O)(=O)Nc2cccc(-c3ccc(N4CCOCC4)nn3)c2)cc1 | active: 8.49 µM |
| CCOc1ccc(NS(=O)(=O)c2ccc3c4c(cccc24)C(=O)N3)cc1 | inactive |
| CC(C)(C)c1ccc(C(=O)NCC(c2ccc(Cl)cc2)N2CCOCC2)cc1 (configuration not stated) | inactive |
| Cc1ccc(CN(Cc2ccco2)C(=O)COc2ccc(C)c(C)c2)cc1 | inconclusive: 33.8 µM [inhibitor, partial curve, poor fit] |
| CC(C)(C)c1ccc(C(=O)Nc2onc3c2CCCC3)cc1 | active: 0.338 µM |
| Cc1cccc(C(=O)N/N=C/c2ccc[nH]2)c1 | inconclusive: 33.8 µM [inhibitor, single point] |
| O=C(NCCc1cnn(-c2ccccc2)c1)c1cc(COc2c(F)cccc2F)on1 | inconclusive: 26.9 µM [inhibitor, single point] |
| Cc1oc(-c2cccc(Cl)c2)nc1CS(=O)(=O)CC(=O)NC1CCCC1 | inactive |
| Oc1cccc2ccc(/C=C/c3ccccc3Br)nc12 | active: 3.38 µM |
| CCc1nn2c(=O)cc(COC(=O)c3ccccc3NC(=O)COc3ccc(C)c(C)c3)nc2s1 | inconclusive: 37.9 µM [inhibitor, partial curve, poor fit] |
| CCCCn1cc(S(=O)(=O)c2cc(C)ccc2C)c(=O)c2cc(F)c(F)cc21 | inactive |
| O=C(O)c1ccc(Nc2nc(-c3ccccc3)c3ccccc3n2)cc1 | inconclusive: 30.1 µM [inhibitor, single point] |
| COc1ccc(Br)cc1[C@@H]1Nc2ccc(C(=O)O)cc2[C@@H]2C=CC[C@@H]21 | inconclusive: 21.3 µM [inhibitor, partial curve] |
| CC(C)CC1=NN2C(=N)/C(=C\c3coc4ccccc4c3=O)C(=O)N=C2S1 | inconclusive: 26.9 µM [inhibitor, partial curve] |
| COc1cc(C(=O)Nc2ccc3c(c2)C(=O)N(CCC(=O)O)C3=O)cc(OC)c1OC | inconclusive: 37.9 µM [inhibitor, single point] |
| O=C(O)c1ccc(N/N=C/c2cn(Cc3ccc(F)cc3)c3ccccc23)cc1 | active: 8.49 µM |
| COc1ccc(C(=O)COC(=O)c2cc(-c3cccs3)nc3ccccc23)cc1 | active: 2.69 µM |
| COc1ccc(OC)c(Nc2sc(C(=O)c3ccccc3)c(N)c2S(=O)(=O)c2ccccc2)c1 | inactive |
| COc1ccc(-c2nnc(SCC(=O)c3cc(C)n(Cc4cccs4)c3C)o2)cc1 | inconclusive: 16.9 µM [inhibitor, partial curve] |
| C=CCn1cnc2c(NCc3ccccc3)ncnc21 | inconclusive: 37.9 µM [inhibitor, partial curve, poor fit] |
| CC(C)(C)c1ccc(Oc2coc3cc(OCC(=O)O)ccc3c2=O)cc1 | active: 2.13 µM |
| CC(C)S(=O)(=O)C1=NSC2=NC(=O)/C(=C\c3ccc(OC(=O)c4ccco4)cc3)C(=N)N21 | inconclusive: 16.9 µM [inhibitor, partial curve, poor fit] |
| C/C(CC(=O)Nc1ccccn1)=N\NC(=O)c1ccccc1 | inactive |
| Cc1ccc2ncc(NC(=O)c3ccc(F)cc3)c(=O)n2c1 | inconclusive: 37.9 µM [inhibitor, partial curve, poor fit] |
